Measurements reported in the supplement of paper PMC10369915.
Some of the results follow. Cut-off read from the data, not from the text of the source: active = 3.2 or more and inactive = the rest. The signal is at background level for most entries.

Tests used:
Test in all cases: enrichment score (SH2-bound / input frequency) (ratio); bacterial display of known human phosphotyrosine sites (pTyr-Var adds point mutants) read by sequencing; higher = stronger binding; tyrosines were phosphorylated by kinases first
Conditions in all cases: peptide library: pTyr-Var
SHP2 C-SH2 domain E139D = molecular target: SHP2 C-SH2 domain E139D
[1] = molecular target: SHP2 C-SH2 domain wild-type
SHP2 N-SH2 domain L43F = molecular target: SHP2 N-SH2 domain L43F
SHP2 N-SH2 domain T42A = molecular target: SHP2 N-SH2 domain T42A
SHP2 N-SH2 domain T52S = molecular target: SHP2 N-SH2 domain T52S
[2] = molecular target: SHP2 N-SH2 domain wild-type
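Note: displayed peptides selected on beads carrying the immobilized SH2 domain, with library peptides lacking any tyrosine serving as negative controls.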

| Binder | enrichment score (SHP2 C-SH2 domain E139D) | enrichment score [1] | enrichment score (SHP2 N-SH2 domain L43F) | enrichment score (SHP2 N-SH2 domain T42A) | enrichment score (SHP2 N-SH2 domain T52S) | enrichment score [2] |
| --- | --- | --- | --- | --- | --- | --- |
| KQCSDYARELE [MYH3_Y1140_R1137C] | inactive: 0.733 | inactive: 0.594 | inactive: 0.511 | inactive: 0.515 | inactive: 0.585 | inactive: 0.678 |
| VHSGTYQVTVC [MYBPC3_Y1043_R1048C] | inactive: 0.988 | inactive: 1.17 | inactive: 0.952 | inactive: 0.828 | inactive: 0.907 | inactive: 1.23 |
| KVFRVYQGQQP [MUTYH_Y494] | inactive: 0.397 | inactive: 0.489 | inactive: 0.513 | inactive: 0.493 | inactive: 0.521 | inactive: 0.705 |
| QWRTKYETDAI [MYH7_Y1375] | inactive: 1.14 | inactive: 0.991 | inactive: 0.99 | inactive: 0.864 | inactive: 0.799 | inactive: 1.43 |
| IRQDHYESLKE [MTR_Y921] | inactive: 0.698 | inactive: 0.576 | inactive: 0.64 | inactive: 0.761 | inactive: 0.736 | inactive: 0.753 |
| FFVVEYRNQKP [MUC17_Y4332_D4334N_YF] | active: 3.65 | active: 3.32 | active: 3.85 | active: 3.53 | active: 4.89 | active: 3.52 |
| TILEHYRRTHC [MYBPC3_Y1119_V1115I] | inactive: 1.17 | inactive: 1.28 | inactive: 1.24 | inactive: 0.959 | inactive: 1.08 | inactive: 1.05 |
| ADRAAYLQNLN [MYH1_Y389_K386R] | inactive: 0.679 | inactive: 0.574 | inactive: 0.652 | inactive: 0.693 | inactive: 0.622 | inactive: 0.827 |
| KQRSDYARELE [MYH3_Y1140] | inactive: 0.577 | inactive: 0.615 | inactive: 0.56 | inactive: 0.61 | inactive: 0.541 | inactive: 0.73 |
| SSVAGYACLAF [MVD_Y131_A128V_YF] | inactive: 1.94 | inactive: 2.76 | active: 4.49 | active: 9.22 | active: 4.53 | inactive: 2.42 |
| IGNGFYFHVFS [MYBPC3_Y1136_R1138H_YF] | inactive: 0.899 | inactive: 0.928 | inactive: 0.854 | inactive: 0.803 | inactive: 0.88 | inactive: 0.995 |
| LNRAGYCDALE [MTUS1_Y151_C148R] | inactive: 0.759 | inactive: 0.908 | inactive: 0.735 | inactive: 0.663 | inactive: 1.08 | inactive: 0.71 |
| PNRILYGDFWQ [MYH6_Y717_R721W] | inactive: 1.05 | inactive: 1 | inactive: 0.904 | inactive: 1.32 | inactive: 0.934 | inactive: 1.13 |
| FFVVEYRDQKP [MUC17_Y4332_YF] | inactive: 2.07 | inactive: 2.19 | inactive: 2.44 | inactive: 1.82 | inactive: 2.77 | inactive: 1.99 |
| ETMNKYDLSGR [MYEF2_Y164] | inactive: 0.715 | inactive: 0.689 | inactive: 0.545 | inactive: 0.549 | inactive: 0.733 | inactive: 0.82 |
| RMETEYGPSVT [MXRA5_Y2717] | inactive: 0.581 | inactive: 0.509 | inactive: 0.624 | inactive: 0.38 | inactive: 0.726 | inactive: 0.468 |
| IIGNGYFFHVF [MYBPC3_Y1135_R1138H_YF] | inactive: 1.03 | inactive: 1.21 | inactive: 1.12 | inactive: 1.08 | inactive: 1.12 | inactive: 1.33 |
| ISDNACQYMLT [MYH7_Y162_Y162C] | inactive: 0.766 | inactive: 0.944 | inactive: 0.871 | inactive: 0.903 | inactive: 0.733 | inactive: 0.908 |
| IIGNGYYFRVF [MYBPC3_Y1135] | inactive: 0.738 | inactive: 0.769 | inactive: 0.802 | inactive: 0.749 | inactive: 0.709 | inactive: 1.09 |

| Binder | enrichment score (SHP2 C-SH2 domain E139D) | enrichment score [1] | enrichment score (SHP2 N-SH2 domain L43F) | enrichment score (SHP2 N-SH2 domain T42A) | enrichment score (SHP2 N-SH2 domain T52S) | enrichment score [2] |
| --- | --- | --- | --- | --- | --- | --- |
| FTNRNYDLDYD [MYC_Y12] | inactive: 0.776 | inactive: 0.621 | inactive: 0.62 | inactive: 0.514 | inactive: 0.509 | inactive: 0.714 |
| KKMEVYQSIAD [MYBPC3_Y548_L545M] | inactive: 0.87 | inactive: 1.03 | inactive: 0.889 | inactive: 0.837 | inactive: 1 | inactive: 0.92 |
| SSVAGYACLAY [MVD_Y131_A128V] | inactive: 0.506 | inactive: 1.13 | inactive: 0.7 | inactive: 1.52 | inactive: 0.654 | inactive: 0.969 |
| QWRTKYETDTI [MYH7_Y1375_A1379T] | inactive: 0.644 | inactive: 0.884 | inactive: 0.859 | inactive: 0.803 | inactive: 0.627 | inactive: 0.597 |
| KAVLHYKHQNQ [MTOR_Y1804_E1799K] | inactive: 1.63 | inactive: 1.13 | inactive: 1.36 | inactive: 0.895 | inactive: 1.18 | inactive: 1.36 |
| ISDNACQFMLT [MYH7_Y162_Y162C_YF] | inactive: 0.694 | inactive: 0.69 | inactive: 0.649 | inactive: 0.422 | inactive: 0.51 | inactive: 0.765 |
| SSAAGYACLAY [MVD_Y131] | inactive: 0.556 | inactive: 1.18 | inactive: 0.84 | inactive: 1.29 | inactive: 0.783 | inactive: 1.05 |
| LIPIKYKAMKK [MYD88_Y257] | inactive: 0.863 | inactive: 0.6 | inactive: 0.461 | inactive: 0.622 | inactive: 0.565 | inactive: 0.915 |
| SFDLDYDSVQP [MYC_Y16_N11S_YF] | inactive: 0.64 | inactive: 0.491 | inactive: 0.533 | inactive: 0.589 | inactive: 0.516 | inactive: 0.589 |
| TGNGFYFRVFS [MYBPC3_Y1136_I1131T_YF] | inactive: 0.606 | inactive: 0.659 | inactive: 0.603 | inactive: 0.519 | inactive: 0.534 | inactive: 0.989 |
| KLKNAYEESLE [MYH7_Y1488] | inactive: 0.802 | inactive: 0.824 | inactive: 0.792 | inactive: 0.834 | inactive: 0.665 | inactive: 0.961 |
| KKLEVYQSIAD [MYBPC3_Y548] | inactive: 0.84 | inactive: 0.88 | inactive: 0.904 | inactive: 0.696 | inactive: 0.875 | inactive: 0.843 |
| IIGNGYFFRVF [MYBPC3_Y1135_YF] | inactive: 0.633 | inactive: 0.924 | inactive: 0.787 | inactive: 0.895 | inactive: 0.649 | inactive: 1.02 |
| RSRSSYTHSLN [MYCT1_Y116_G119S] | inactive: 0.306 | inactive: 0.355 | inactive: 0.343 | inactive: 0.289 | inactive: 0.465 | inactive: 0.363 |
| RNNIEYVRDIG [MUSK_Y577] | inactive: 0.802 | inactive: 0.817 | inactive: 1.16 | inactive: 0.608 | inactive: 0.936 | inactive: 1.11 |
| EWKQNYEESQS [MYH7_Y1460_K1459N] | inactive: 0.562 | inactive: 0.59 | inactive: 0.626 | inactive: 0.656 | inactive: 0.587 | inactive: 0.594 |
| ADKAAYLQSLN [MYH2_Y389] | inactive: 0.79 | inactive: 0.739 | inactive: 0.609 | inactive: 0.573 | inactive: 0.716 | inactive: 0.646 |
| RIAFQYGVTDL [MYBPC3_Y340] | inactive: 1.07 | inactive: 0.935 | inactive: 0.97 | inactive: 0.843 | inactive: 0.851 | inactive: 1.19 |
